The source holds more than one record for some entries. They are shown here; other results are not. The source may hold further records. The values listed for one entry are repeated measurements in other runs, samples, wells, individuals or studies. One block for each compound: values may come before it.
System: 596521-263-R-J1-PDC complex spheroids, viability % of control
Test: Anticancer human tumor 596521-263-R-J1-PDC patient-derived soft tissue sarcoma cell line growth inhibition [GQUAD]
Conditions: for IC50: compound alone; for viability, T/C: stronger effect = lower value
Text: DNA G-quadruplex Stabilizer Agents in Combinations in Complex Spheroids
A high-throughput screen of multi-cell type tumor spheroids was designed to identify active combinations of DNA G-quadruplex stabilizer agents and targeted small molecules. Complex spheroids include a stromal component modeled by human endothelial cells (HUVEC) and fibroblasts modeled by human mesenchymal stem cells (MSCs). The concentration ranges selected for each drug and investigational agent were based upon clinically achievable concentrations if the clinical Cmax of the agent was known.
Compounds. The drugs and investigational agents: pidnarulex (CX-5461; NSC782164), APTO-253 (NSC789042), BRACO-19 (NSC847499), peposertib (NSC802822), ceralasertib (NSC780249), elimusertib (NSC800525), camonsertib (NSC841442), AZD-1390 (NSC803789), olaparib (NSC753686), talazoparib (NSC767125), ART-558 (NSC835418), sotorasib (NSC818433), MRTX-1133 (NSC836407), SN-38 (NSC673596), topotecan (NSC609699), etoposide (NSC141540), doxorubicin (NSC123127), gemcitabine (NSC613327), 5-fluorouracil (NSC19893), paclitaxel (NSC125973), vemurafenib (NSC761431), panobinostat (NSC761190), R-306465 (JNJ-16241199; NSC773264), adavosertib (NSC754352), TP-3654 (NSC805149), carboplatin (NSC241240), KSQ-4279 (NSC840948), and staurosporine (NSC755774) were obtained from the National Cancer Institute (NCI) Developmental Therapeutics Program Chemical Repository (34). The FDA-approved anticancer drug set is available from the NCI Developmental Therapeutics Program. […] The stock solutions were prepared in dimethyl sulfoxide (DMSO, Sigma-Aldrich, St. Louis, MO, cat. D2650) at 800-fold the tested concentration and stored at -70 degrees C prior to their use. All drugs and investigational agents were tested over a range starting from a high concentration at or near the clinical Cmax and decreasing in half-log increments. If the clinical Cmax for an agent had not been determined, the highest concentration tested was 10 microM.
2.3 Cell Culture. All cells were maintained in an incubator at 37 degrees C and 5% CO2 with 95% humidity. The PDC lines were cultured according to standard operating procedures established by the NCI PDMR. All PDCs were thawed and cultured in Matrigel-coated flasks prepared with a working solution of 1X Ham's F-12 nutrient mix, without supplementation (Invitrogen, cat. 11765054), 100 U/mL penicillin-streptomycin (Invitrogen, cat. 15140122), and 2.5% Matrigel (Corning Inc., cat. 354248) for the first three passages. The 857933-349-R-J2-PDC line was cultured in 6C/Colon 1B media, which includes advanced DMEM/F-12 (Thermo Fisher Scientific, cat. 12634028), 10 mM HEPES (Thermo Fisher Scientific, cat. 15630080), 1X GlutaMAX supplement (Thermo Fisher Scientific, cat. 35050061), 0.1 mg/mL primocin (InvivoGen, cat. ant-pm-2), 10% defined fetal bovine serum, heat inactivated (HyClone Laboratories Inc., cat. SH30070.03HI), 50% L-WRN conditioned media (ATCC, cat. CRL-3276), 1.25 mM N-Acetyl-L-cysteine (Sigma-Aldrich, cat. A9165), 10 mM nicotinamide (Sigma-Aldrich, cat. N0636), 1X B-27 supplement (Thermo Fisher Scientific, cat. 17504044), 1X N-2 supplement (Thermo Fisher Scientific, cat. 17502048), 10 microM Y-27632 dihydrochloride (Tocris Bioscience, cat. 1254), and 50 ng/mL human EGF recombinant protein (Thermo Fisher Scientific, cat. PHG0311). The 485176-168-R4-J1-PDC line was cultured in Panc media, which includes all 6C/Colon 1B media components plus 100 ng/mL human FGF-10 (Thermo Fisher Scientific, cat. 100-26), 500 nM SB-431542 (Selleckchem, cat. S1067), and gastrin (Tocris, cat. 3006).
[…]
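Further: spheroids exposed to drugs for 7 days before viability reading.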

- IC50: 603 nM, 5.77 µM, 380 nM
SMILES: C=CCn1c(=O)c2cnc(Nc3ccc(N4CCN(C)CC4)cc3)nc2n1-c1cccc(C(C)(C)O)n1

SMILES: Cc1cnc(CNC(=O)c2c(=O)c3ccc(N4CCCN(C)CC4)nc3n3c2sc2ccccc23)cn1
- IC50 (run of 04/16/2024): 5.66 µM, 7.67 µM, 3.47 µM, 7.04 µM, > 10 µM, 3.69 µM, 3.03 µM, 6.74 µM

SMILES: O=C(NO)c1cnc(N2CCN(S(=O)(=O)c3ccc4ccccc4c3)CC2)nc1
- viability, T/C (compound alone 1 µM): 0.67%, 26.4%, 0.71%
- viability, T/C (compound alone 3.16 µM): 0.37%, 27.7%, 0.49%
- viability, T/C (compound alone 10 µM): 0.28%, 26.9%, 0.33%

SMILES: CC(=O)O[C@H]1C(=O)[C@@]2(C)[C@H]([C@H](OC(=O)c3ccccc3)[C@]3(O)C[C@H](OC(=O)[C@H](O)[C@@H](NC(=O)c4ccccc4)c4ccccc4)C(C)=C1C3(C)C)[C@]1(OC(C)=O)CO[C@@H]1C[C@@H]2O
- viability, T/C (compound alone 1 µM): 28.5%, 0.82%, 26.9%
- viability, T/C (compound alone 3.16 µM): 29.7%, 0.45%, 28.8%
- viability, T/C (compound alone 10 µM): 27.8%, 0.32%, 28%

SMILES: COc1ncnc(C2CC2)c1-c1ncc2cnn(Cc3ccc(-c4nc(C(F)(F)F)cn4C(C)C)cc3)c2n1
- viability, T/C (compound alone 10 µM): 92.2%, 1.73%, 95.6%

- IC50: 7.12 µM, 435 nM, 5.16 µM
SMILES: CCCS(=O)(=O)Nc1ccc(F)c(C(=O)c2c[nH]c3ncc(-c4ccc(Cl)cc4)cc23)c1F

SMILES: Cc1[nH]c2ccccc2c1CCNCc1ccc(/C=C/C(=O)NO)cc1
- viability, T/C (compound alone 0.316 µM): 1.65%, 91.2%, 1.71%

From PubChem BioAssay AID2060500 (Molecular Pharmacology Branch, DTP, NCI, 2025)
